Data on 84 variants can be found in the RNAGym collection of RNA variant scans (doi:10.1093/nar/gkz1192).

Read counts are not given, so values of variants with three or more changes are uncertain.

Sequences and labels used below:
B1: CPEB3 Ribozyme (parent)
chain: UAACAGGGGGCCACAGCAGAAGCGUUCACGUCGCAGCCCCUGUCAGAUUCUGGUGAAUCUGCGAAUUCUGCUGUAUAUCUC

In this data set the parent is B1. The data set is described as follows: self-cleavage, relative activity (ratio to wild type); higher = more cleavage; in vitro, sequencing. The essentials:
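Relative activity was defined as the cleaved/total read fraction for a variant divided by the same fraction for the unmutated ribozyme. CPEB3 self-cleaving ribozyme libraries were made by rounds of error-prone PCR, barcoded, and transcribed in vitro with T7 RNA polymerase for 5 hours at 37°C, and cleavage ran through transcription plus a 15 min DNase I step before EDTA. Illumina sequencing of template-switched reverse transcripts gave the reads, and DNA sequencing mapped the barcodes. Averages come from three batches, using variants with at least 5 reads.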
U31C U43C C50A U66C: the self-cleavage was 0.06.

As to U31C U66C C71U, the self-cleavage is 0.19.

Turning to U31G U48A A57G, the self-cleavage worked out at 0.12.

Turning to C32U A64G C71U U80C, the self-cleavage came to 0.12.

U31G A45C U51A A75U: the self-cleavage is 0.09.

For the variant G33A U51C A56U U58G U60A U76A, the self-cleavage came out at 0.05.

With U31G U48C A56G U66C, the self-cleavage came out at 0.14.

Consider C32U U58C U69A, for which the self-cleavage turned out to be 0.07.

For the variant G33A A57G U66C U67C U74C U76A, the self-cleavage turned out to be 0.08.

Regarding U31G C38U A56U A75G, the self-cleavage was 0.08.

Regarding U31C A65G U66A C68U U69C, the self-cleavage was determined as 0.22.

With U31C U51A U78C, the self-cleavage was determined as 0.87.

With G33A U49G A56G A65G U67A U78A, the self-cleavage was found to be 0.05.

With G33A G46A U66C, the self-cleavage amounted to 0.1.

Turning to U31C U49C U78C, the self-cleavage was 0.22.

As to C32A U69C U72A, the self-cleavage is 0.1.

U31C U60C U69C: the self-cleavage was found to be 0.3.

With U31C U67C U72A, the self-cleavage worked out at 0.16.

In the case of U31C U41A A45G, the self-cleavage stood at 0.16.

For U31C U72A G73U A77G, the self-cleavage amounted to 0.73.

Take U31C U54C G55A A65G: the self-cleavage came to 0.11.

As to C32A U58A A77G, the self-cleavage was 0.39.

For the variant U31C G53U A65G, the self-cleavage stood at 0.2.

With C32U U43A A56U U69A, the self-cleavage came to 0.07.

On to G33A U41C A45C U80C, for which the self-cleavage was 0.07.

Turning to U31C C62G U66C, the self-cleavage stood at 0.14.

In the case of C32A C40U U69C U78A, the self-cleavage was 0.06.

C32U U41A U72A: the self-cleavage is 0.12.

Take G33A C37G A57G: the self-cleavage came out at 0.11.

In the case of U31C U54C U69G, the self-cleavage stood at 0.26.

On to G33A A35C U49C A56U U78C, for which the self-cleavage came out at 0.1.

In the case of U31C U54A G63C U78A, the self-cleavage came to 0.64.

G33C G55U U66C U72C A77G: the self-cleavage stood at 0.08.

In the case of C32U C40G U41C U43A U58C, the self-cleavage came to 0.15.

In the case of G33A U60C U76C U80A, the self-cleavage turned out to be 0.05.

Turning to U31C C40G U72C, the self-cleavage turned out to be 0.33.

In the case of U31C U60C U69C U72A U80C, the self-cleavage is 0.17.

In the case of C32A U49C U54C, the self-cleavage stood at 0.06.

As to U31C U60C G63U, the self-cleavage is 0.4.

In the case of C32A U58A U72A A77G, the self-cleavage worked out at 0.06.

On to U31C U41C U43C A45G A77U, for which the self-cleavage worked out at 0.

Consider U31C U49A U58C, for which the self-cleavage was 0.1.

As for U31C C32U G46U U76C, the self-cleavage amounted to 0.03.

For the variant U31C U51C A75G U80C, the self-cleavage turned out to be 0.44.

In the case of U31C G42A U48C U51C, the self-cleavage amounted to 0.12.

On to U31C U43C U49A U54C, for which the self-cleavage was 0.13.

With U31C G36A U41A, the self-cleavage is 0.45.

For G33A A57G U69C, the self-cleavage worked out at 0.19.

Take U31C U43C A47U U78C: the self-cleavage was determined as 0.24.

For the variant G33A C38U C44U A56U A64G, the self-cleavage is 0.1.

For the variant C32U A35G A47G U51C, the self-cleavage was determined as 0.18.

C32U A56U A57G A75G: the self-cleavage stood at 0.11.

In the case of C32U G46A U58C, the self-cleavage was 0.48.

For the variant G33C C40A A65G, the self-cleavage is 0.04.

Turning to U31G C38U U78C, the self-cleavage was 0.21.

For the variant U31C A65G U80G, the self-cleavage came out at 0.41.

U31C C40U U58A U72A A75G: the self-cleavage was 0.18.

In the case of U31C U51C U72C U80C, the self-cleavage is 0.99.

Turning to U31G A64U U66C, the self-cleavage turned out to be 0.39.

Turning to U31C C37A A65G U74A A77C U80C, the self-cleavage amounted to 0.12.

In the case of G33A U51C U67A, the self-cleavage stood at 0.07.

Turning to U31C U51C A56G U72G A75U, the self-cleavage worked out at 0.55.

Regarding G33A A57G U60A U80C, the self-cleavage amounted to 0.38.

As for U31C U41G U48C U51C, the self-cleavage was 0.16.

As for C32U U51C U58G U74C, the self-cleavage was 0.12.

In the case of G33A A35G U43A U66C U67A U72C, the self-cleavage turned out to be 0.04.

In the case of U31C G33A A35G U48C U67A, the self-cleavage turned out to be 0.17.

Regarding U31C U51C A77U, the self-cleavage was determined as 0.91.

For G33A U41G U43A U72C, the self-cleavage was 0.15.

As to C32A G36A U58A C59U U66C U74A, the self-cleavage came to 0.07.

On to C32U C38A U41C U43A U54C, for which the self-cleavage is 0.17.

In the case of U31C G33A A47C U72C, the self-cleavage came out at 0.13.

Take U31C C40U U51C U66C U69A: the self-cleavage was determined as 0.12.

Consider U31G U48C A56U U67C, for which the self-cleavage came out at 0.12.

Consider C32G A56G U66C, for which the self-cleavage stood at 0.43.

Take U31C U69C A75G: the self-cleavage turned out to be 0.2.

On to G33A U41C U51C A77G, for which the self-cleavage came to 0.12.

In the case of C32U A45U A47G, the self-cleavage amounted to 0.11.

As to U31C C32A U60C A64G, the self-cleavage is 0.1.

On to U31C G42A C68G U78C, for which the self-cleavage was found to be 0.1.

As to C32U U43C U49C U69C, the self-cleavage stood at 0.47.

Regarding U31G C39G U48C, the self-cleavage came out at 0.09.

For the variant U31C C34G A47G A56G A57G C62U, the self-cleavage came to 0.07.

For the variant U31C C38U U69C U80C, the self-cleavage was determined as 0.12.
